Laboratory results reported in the supplement of paper PMC8047034.
Structures can show the parent of a compound that is named as a salt. The list shows a part of the results. Repeats are few or missing, and single values can be far off.

Legend:
OVCAR4 = experiment: log2 surviving fraction (library drug vs vehicle, or drug + carboplatin vs carboplatin alone; relative to plate median); ovarian cancer lines: OVCAR4 is platinum-sensitive and Ov4Carbo platinum-resistant; higher = more cell survival; settings: library drug concentration 10 µM, 7 days
Ov4Carbo = experiment: as above; settings: library drug concentration 10 µM, 7 days

| SMILES | log2 surviving fraction (OVCAR4; carboplatin co-treatment 0 µM) | log2 surviving fraction (OVCAR4; carboplatin co-treatment 5 µM) | log2 surviving fraction (Ov4Carbo; carboplatin co-treatment 0 µM) | log2 surviving fraction (Ov4Carbo; carboplatin co-treatment 5 µM) |
| --- | --- | --- | --- | --- |
| CNS(=O)(=O)CCc1ccc2[nH]cc(C3CCN(C)CC3)c2c1 [Naratriptan HCl] | 0.63 | 0.244 | -1.52 | 0.32 |
| Cc1ccccc1N1C(=O)c2cc(S(N)(=O)=O)c(Cl)cc2NC1C (centres undefined) [Metolazone (Zaroxolyn)] | 0.542 | 0.124 | -0.18 | 0.369 |
| CN1C2CCC1CC(OC(=O)C(O)c1ccccc1)C2 (centres undefined) [Homatropine Bromide] | 0.601 | 0.922 | 0.746 | 1.07 |
| CN1CCc2cc3c(cc2C1O)OCO3 (centres undefined) [Hydrastinine HCl] | 0.413 | 2.17 | 0.487 | -0.164 |
| Nc1ccc(C(=O)NCC(=O)O)cc1 [Sodium 4-aminohippurate Hydrate] | -2.11 | 1.81 | -0.657 | -1.83 |
| CC(C)N(CCC(C(N)=O)(c1ccccc1)c1ccccn1)C(C)C (centres undefined) [Disopyramide Phosphate] | 0.191 | -0.161 | 0.379 | 0.284 |
| C[C@@H]1CCN(C(=O)CC#N)C[C@@H]1N(C)c1ncnc2[nH]ccc12 | 0.568 | 1.15 | 0.0902 | -0.5 |
| Cc1cc(C2CCCCC2)n(O)c(=O)c1 [Ciclopirox ethanolamine] | -9.2 | -8.26 | -8.79 | -7.93 |
| CC(C)NCC(O)COc1ccc(CCOCC2CC2)cc1 (centres undefined) [Betaxolol (Betoptic)] | 1.44 | -0.309 | 0.665 | -1.9 |
| COc1ccc2[nH]c([S@@+]([O-])Cc3ncc(C)c(OC)c3C)nc2c1 [Esomeprazole sodium (Nexium)] | -0.912 | 0.0693 | -0.322 | -0.409 |
| [I-].[K+] [Potassium iodide] | 0.666 | 1.17 | 0.324 | 0.116 |
| COc1ccc(CC2c3cc(OC)c(OC)cc3CC[N+]2(C)CCC(=O)OCCCCCOC(=O)CC[N+]2(C)CCc3cc(OC)c(OC)cc3C2Cc2ccc(OC)c(OC)c2)cc1OC (centres undefined) [Atracurium besylate] | -0.132 | -0.724 | -0.852 | -0.395 |
| CCc1ccc(CCOc2ccc(CC3SC(=O)NC3=O)cc2)nc1 (centres undefined) [Pioglitazone hydrochloride (Actos)] | 0.347 | -1.58 | 0.361 | 0.793 |
| COc1cccc(N(C)C(=S)Oc2ccc3c(c2)CCCC3)n1 [Liranaftate] | -0.138 | 1.17 | -0.406 | -0.56 |
| COc1ccc2c(c1)C(=O)N(CCc1ccc(S(=O)(=O)NC(=O)NC3CCCCC3)cc1)C(=O)C2(C)C [Gliquidone] | -0.364 | 0.0921 | -0.437 | -0.484 |
| COC(=O)C1=C(C)NC(C)=C(C(=O)OCC(C)C)C1c1ccccc1[N+](=O)[O-] (centres undefined) [Nisoldipine (Sular)] | 0.0308 | -0.526 | -0.981 | -0.587 |
| Nc1ncnc2c1ncn2[C@@H]1O[C@H](CO)[C@@H](O)[C@@H]1O [Vidarabine (Vira-A)] | 0.213 | -0.977 | 0.147 | -0.0463 |
| CC(C)c1nc(N(C)S(C)(=O)=O)nc(-c2ccc(F)cc2)c1/C=C/[C@@H](O)C[C@@H](O)CC(=O)O [Rosuvastatin calcium (Crestor)] | -1.04 | -0.384 | -0.494 | -0.481 |
| COC(=O)C1=C(C)NC(C)=C(C(=O)OCCN(C)Cc2ccccc2)C1c1cccc([N+](=O)[O-])c1 (centres undefined) [Nicardipine HCl] | -1.53 | -1.31 | -2.52 | -2.86 |
| Oc1ccc(/C=C/c2cc(O)cc(O)c2)cc1 [Resveratrol] | -1.79 | -4.02 | -2.4 | -4.37 |
| CC(C)NC[C@H](O)COc1ccc(CCOCC2CC2)cc1 [Levobetaxolol HCl] | 0.434 | -0.302 | -0.265 | 0.82 |
| CCN1CC(CCN2CCOCC2)C(c2ccccc2)(c2ccccc2)C1=O (centres undefined) [Doxapram HCl] | 0.193 | 0.282 | 0.109 | 0.997 |
| Nc1nc(=O)[nH]cc1F [Flucytosine (Ancobon)] | 0.323 | 0.523 | 0.575 | -0.0682 |
| C#CCC(Cc1cnc2nc(N)nc(N)c2n1)c1ccc(C(=O)N[C@@H](CCC(=O)O)C(=O)O)cc1 (some centres undefined) [Pralatrexate (Folotyn)] | -1.93 | -2.72 | -3.69 | -2.71 |
| CN(C)CCCN1c2ccccc2Sc2ccc(Cl)cc21 [Chlorpromazine (Sonazine)] | -2.2 | -1.01 | -2.64 | -2.63 |
| Cn1c(CNc2ccc(C(=N)N)cc2)nc2cc(C(=O)N(CCC(=O)O)c3ccccn3)ccc21 [BIBR 953 (Dabigatran etexilate, Pradaxa)] | 0.0263 | 0.344 | 0.277 | -0.225 |
